# Reference: the supplement of paper PMC8728848
# The other results are listed elsewhere or left out.
# B1: MIG/CXCL9 (Homo sapiens) (protein)
# chain: TPVVRKGRCSCISTNQGTIHLQSLKDLKQFAPSPSCEKIEIIIATLKNGVQTCLNPDSADVKELIKKTEKQVSQKKKQKNGKKHQKKKVLKVRKSQRSRQKKTT
# What was measured:
# Experiment in all cases: glycan array binding signal (z-score within array); higher = stronger binding
# Conditions in all cases: glycan notation: IUPAC condensed, linker removed
# [1] = target: Gal(b1-4)GlcNAc(b1-3)GalNAc
# Summary of the method: (§1)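 Negative Z-scores can be read as non-binding. The Z-score is calculated within each array and then averaged across arrays of one protein sequence at different concentrations or buffers and across linkers. Arrays, 3228 in all, were curated from the Consortium for Functional Glycomics database and kept only where the protein sequence was available.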
# [2] = target: Gal(b1-4)GlcNAc(b1-3)[Gal(b1-4)GlcNAc(b1-6)]GalNAc
# Summary of the method: as §1
# [3] = target: Gal(b1-4)GlcNAc(b1-6)Gal(b1-4)GlcNAc(b1-6)GalNAc
# Summary of the method: as §1
# [4] = target: Gal(b1-4)GlcNAc(b1-6)GalNAc
# Summary of the method: as §1
# [5] = target: Gal(b1-4)GlcNAc(b1-6)[Gal(b1-3)]GalNAc
# Summary of the method: as §1
# [6] = target: Gal3S(b1-3)GalNAc
# Summary of the method: as §1
# [7] = target: Gal3S(b1-3)GlcNAc
# Summary of the method: as §1
# [8] = target: Gal3S(b1-3)[Fuc(a1-4)]GlcNAc
# Summary of the method: as §1
# [9] = target: Gal3S(b1-4)Glc
# Summary of the method: as §1
# [10] = target: Gal3S(b1-4)Glc6S
# Summary of the method: as §1
# [11] = target: Gal3S(b1-4)GlcNAc
# Summary of the method: as §1
# [12] = target: Gal3S(b1-4)GlcNAc6S
# Summary of the method: as §1
# [13] = target: Gal3S6S(b1-4)GlcNAc
# Summary of the method: as §1
# [14] = target: Gal3S6S(b1-4)GlcNAc6S
# Summary of the method: as §1
# [15] = target: Gal4S(b1-4)GlcNAc
# Summary of the method: as §1
# [16] = target: Gal4S6S(b1-4)GlcNAc
# Summary of the method: as §1
# [17] = target: Gal6S(b1-4)Glc
# Summary of the method: as §1
# [18] = target: Gal6S(b1-4)Glc6S
# Summary of the method: as §1
# [19] = target: Gal6S(b1-4)GlcNAc
# Summary of the method: as §1
# [20] = target: GalNAc(a1-3)Gal
# Summary of the method: as §1
# [21] = target: GalNAc(a1-3)GalNAc
# Summary of the method: as §1
# [22] = target: GalNAc(b1-3)Gal(a1-4)Gal(b1-4)GlcNAc
# Summary of the method: as §1
# [23] = target: GalNAc(b1-3)GalNAc
# Summary of the method: as §1
# [24] = target: GalNAc(b1-4)GlcNAc
# Summary of the method: as §1
# [25] = target: Glc(a1-4)Glc
# Summary of the method: as §1
# [26] = target: Glc(a1-6)Glc(a1-6)Glc
# Summary of the method: as §1
# [27] = target: Glc(b1-4)Glc
# Summary of the method: as §1
# [28] = target: Glc(b1-6)Glc
# Summary of the method: as §1
# [29] = target: GlcA(b1-3)Gal
# Summary of the method: as §1
# [30] = target: GlcA(b1-6)Gal
# Summary of the method: as §1
# [31] = target: GlcNAc(a1-3)Gal(b1-4)GlcNAc
# Summary of the method: as §1
# [32] = target: GlcNAc(a1-6)Gal(b1-4)GlcNAc
# Summary of the method: as §1
# [33] = target: GlcNAc(b1-2)Gal(b1-3)GalNAc
# Summary of the method: as §1
# [34] = target: GlcNAc(b1-2)Man(a1-3)[GlcNAc(b1-2)Man(a1-6)]Man(b1-4)GlcNAc(b1-4)GlcNAc
# Summary of the method: as §1
# [35] = target: GlcNAc(b1-3)Gal
# Summary of the method: as §1
# [36] = target: GlcNAc(b1-3)Gal(b1-3)GalNAc
# Summary of the method: as §1
# [37] = target: GlcNAc(b1-3)Gal(b1-4)Glc
# Summary of the method: as §1
binder,measurement,setting,value
B1,glycan array binding signal (z-score),[1],-0.437
same,glycan array binding signal (z-score),[2],-0.45
same,glycan array binding signal (z-score),[3],1.71
same,glycan array binding signal (z-score),[4],-0.465
same,glycan array binding signal (z-score),[5],-0.424
same,glycan array binding signal (z-score),[6],-0.437
same,glycan array binding signal (z-score),[7],-0.159
same,glycan array binding signal (z-score),[8],-0.071
same,glycan array binding signal (z-score),[9],-0.028
same,glycan array binding signal (z-score),[10],1.68
same,glycan array binding signal (z-score),[11],-0.23
same,glycan array binding signal (z-score),[12],2.28
same,glycan array binding signal (z-score),[13],2.35
same,glycan array binding signal (z-score),[14],5.28
same,glycan array binding signal (z-score),[15],-0.245
same,glycan array binding signal (z-score),[16],0.755
same,glycan array binding signal (z-score),[17],-0.013
same,glycan array binding signal (z-score),[18],2.35
same,glycan array binding signal (z-score),[19],-0.128
same,glycan array binding signal (z-score),[20],-0.015
same,glycan array binding signal (z-score),[21],0.274
same,glycan array binding signal (z-score),[22],-0.321
same,glycan array binding signal (z-score),[23],-0.202
same,glycan array binding signal (z-score),[24],-0.358
same,glycan array binding signal (z-score),[25],-0.178
same,glycan array binding signal (z-score),[26],-0.405
same,glycan array binding signal (z-score),[27],-0.186
same,glycan array binding signal (z-score),[28],-0.376
same,glycan array binding signal (z-score),[29],0.283
same,glycan array binding signal (z-score),[30],0.173
same,glycan array binding signal (z-score),[31],-0.336
same,glycan array binding signal (z-score),[32],-0.477
same,glycan array binding signal (z-score),[33],-0.21
same,glycan array binding signal (z-score),[34],0.001
same,glycan array binding signal (z-score),[35],0
same,glycan array binding signal (z-score),[36],-0.337
same,glycan array binding signal (z-score),[37],-0.432
